Experimental data reported in PMC6756068, “The NF2 tumor suppressor merlin interacts with Ras and RasGAP, which may modulate Ras signaling” (Oncogene, 2019).
No constants are given. Whether binding was seen depends on the method and setting. For part of these data: Binding seen in cells or lysates may run through a third protein. Some entries that bind do so weakly or less than the wild type. For part of these data: Where a sequence is shown, tags or fusion partners need not be part of it.

Chains of the proteins cited; added tags and fusions are not shown.
UniProt P15311: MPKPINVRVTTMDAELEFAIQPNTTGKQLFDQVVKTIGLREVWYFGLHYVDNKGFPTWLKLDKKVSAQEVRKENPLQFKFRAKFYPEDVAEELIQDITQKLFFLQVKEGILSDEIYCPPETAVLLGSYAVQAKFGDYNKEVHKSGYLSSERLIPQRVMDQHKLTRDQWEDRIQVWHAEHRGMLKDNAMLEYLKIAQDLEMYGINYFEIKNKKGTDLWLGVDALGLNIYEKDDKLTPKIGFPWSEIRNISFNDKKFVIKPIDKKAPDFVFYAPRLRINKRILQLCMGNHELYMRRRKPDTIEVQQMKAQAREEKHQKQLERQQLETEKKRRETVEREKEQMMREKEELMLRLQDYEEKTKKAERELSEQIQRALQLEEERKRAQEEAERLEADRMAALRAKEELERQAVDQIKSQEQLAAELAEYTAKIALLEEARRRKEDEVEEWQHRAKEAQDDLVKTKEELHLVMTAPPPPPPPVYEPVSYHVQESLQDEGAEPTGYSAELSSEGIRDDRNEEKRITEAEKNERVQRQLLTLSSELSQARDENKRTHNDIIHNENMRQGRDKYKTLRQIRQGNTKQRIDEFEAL
UniProt P26038: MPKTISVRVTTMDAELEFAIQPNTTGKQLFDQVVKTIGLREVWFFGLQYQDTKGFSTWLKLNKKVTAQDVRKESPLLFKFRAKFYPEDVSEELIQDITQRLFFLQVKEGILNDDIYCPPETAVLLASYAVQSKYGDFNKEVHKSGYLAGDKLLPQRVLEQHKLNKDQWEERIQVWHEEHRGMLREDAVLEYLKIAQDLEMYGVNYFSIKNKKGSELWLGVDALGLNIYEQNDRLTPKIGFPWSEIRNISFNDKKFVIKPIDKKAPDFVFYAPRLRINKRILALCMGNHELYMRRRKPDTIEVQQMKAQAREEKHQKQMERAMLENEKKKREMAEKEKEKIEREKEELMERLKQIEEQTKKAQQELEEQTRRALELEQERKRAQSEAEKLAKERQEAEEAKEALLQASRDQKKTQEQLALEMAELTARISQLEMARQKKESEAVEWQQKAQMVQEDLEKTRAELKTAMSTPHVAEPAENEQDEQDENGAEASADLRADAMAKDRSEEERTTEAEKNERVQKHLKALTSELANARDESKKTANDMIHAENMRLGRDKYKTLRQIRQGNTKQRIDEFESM
UniProt P35241: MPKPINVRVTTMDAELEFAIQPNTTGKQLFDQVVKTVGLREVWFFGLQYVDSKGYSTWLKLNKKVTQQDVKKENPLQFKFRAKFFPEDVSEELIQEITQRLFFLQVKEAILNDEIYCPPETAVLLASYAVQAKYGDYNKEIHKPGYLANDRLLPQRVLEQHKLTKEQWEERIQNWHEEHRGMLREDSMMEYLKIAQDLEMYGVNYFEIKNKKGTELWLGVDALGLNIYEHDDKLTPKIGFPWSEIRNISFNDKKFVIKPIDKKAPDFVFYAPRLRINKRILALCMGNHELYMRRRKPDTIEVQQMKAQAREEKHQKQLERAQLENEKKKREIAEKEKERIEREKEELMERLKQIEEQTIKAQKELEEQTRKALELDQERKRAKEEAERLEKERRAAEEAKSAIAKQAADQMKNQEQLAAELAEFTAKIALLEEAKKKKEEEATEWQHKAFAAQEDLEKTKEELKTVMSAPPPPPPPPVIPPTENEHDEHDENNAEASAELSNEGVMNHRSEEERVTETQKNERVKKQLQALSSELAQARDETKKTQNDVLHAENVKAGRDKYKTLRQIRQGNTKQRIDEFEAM

Assays:
Cerl-RasGAP = molecular target: T1, Cerl-RasGAP (UniProt P20936); assay: split reporter; BiFC with split cerulean (Cerf, Cerl) constructs cotransfected with pEYFP-C1 into 293T cells, fixed about 48 h later
T1 sequence: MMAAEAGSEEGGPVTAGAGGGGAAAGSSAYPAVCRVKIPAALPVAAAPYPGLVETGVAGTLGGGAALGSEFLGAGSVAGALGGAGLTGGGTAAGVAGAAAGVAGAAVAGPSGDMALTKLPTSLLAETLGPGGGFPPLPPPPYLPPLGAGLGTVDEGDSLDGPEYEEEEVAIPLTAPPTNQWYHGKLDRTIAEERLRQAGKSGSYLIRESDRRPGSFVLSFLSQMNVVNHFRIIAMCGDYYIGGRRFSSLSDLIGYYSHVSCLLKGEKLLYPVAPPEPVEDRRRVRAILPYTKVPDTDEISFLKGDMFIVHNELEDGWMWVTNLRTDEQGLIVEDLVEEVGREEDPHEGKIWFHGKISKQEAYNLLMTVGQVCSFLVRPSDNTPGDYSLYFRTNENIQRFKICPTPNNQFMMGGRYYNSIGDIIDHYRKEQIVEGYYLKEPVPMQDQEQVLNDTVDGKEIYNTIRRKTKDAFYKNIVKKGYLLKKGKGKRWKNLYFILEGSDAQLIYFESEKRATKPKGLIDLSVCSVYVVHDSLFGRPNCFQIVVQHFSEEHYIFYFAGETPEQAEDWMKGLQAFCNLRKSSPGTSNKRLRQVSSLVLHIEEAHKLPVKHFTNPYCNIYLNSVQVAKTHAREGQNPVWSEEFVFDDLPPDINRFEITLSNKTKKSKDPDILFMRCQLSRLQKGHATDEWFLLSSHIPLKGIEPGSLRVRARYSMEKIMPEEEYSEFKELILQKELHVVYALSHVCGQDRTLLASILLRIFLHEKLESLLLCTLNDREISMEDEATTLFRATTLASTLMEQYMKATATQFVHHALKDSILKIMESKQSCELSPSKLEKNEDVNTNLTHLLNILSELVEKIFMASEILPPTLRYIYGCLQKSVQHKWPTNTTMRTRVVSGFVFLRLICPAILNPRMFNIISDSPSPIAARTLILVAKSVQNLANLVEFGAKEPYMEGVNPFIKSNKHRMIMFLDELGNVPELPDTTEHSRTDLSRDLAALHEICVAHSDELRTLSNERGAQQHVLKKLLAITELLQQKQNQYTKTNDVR

[1] = molecular target: GST-merlin α-helical-tail domains (aa 312–595) (UniProt P35240); assay: pull-down; GST-merlin fragments pull down HRas 1–166 preloaded with GDP or GTPγS; western blot; all proteins purified from E. coli; both purified
[2] = molecular target: GST-merlin FERM (aa 1–313) (UniProt P35240); assay: as above
[3] = molecular target: T2, GST-RasGAP (construct not told; GST pull-downs of Figures S5 and S6) (UniProt P20936); assay: pull-down; GST pulldown with the lysate from 293 cells, which express all ERMs and merlin; only the target purified
T2 sequence: T1 sequence

GST-RasGAP FL = molecular target: T3, GST-RasGAP FL (UniProt P20936); assay: pull-down; GST-RasGAP fragments pull down merlin from indicated cell lysates; western blot; only the target purified
T3 sequence: T1 sequence

EGFP-RasGAP = molecular target: T4, EGFP-RasGAP (UniProt P20936); assay: co-IP; merlin cotransfected with EGFP-RasGAP constructs in Sc4 cells (merlin-deficient)
T4 sequence: T1 sequence

EGFP-PH = molecular target: T5, EGFP-PH (UniProt P20936); assay: as above
T5 sequence: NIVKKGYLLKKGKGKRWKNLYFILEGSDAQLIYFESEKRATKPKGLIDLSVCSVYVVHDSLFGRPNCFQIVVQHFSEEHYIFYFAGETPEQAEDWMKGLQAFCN

[4] = molecular target: T2, GST-RasGAP (construct not told; GST pull-downs of Figures S5 and S6); assay: pull-down; GST pulldown of merlin iso1 and iso2 S518A overexpressed in 293 cells; only the target purified
[5] = molecular target: GST-merlin FERM (aa 1–313) (UniProt P35240); assay: pull-down; GST-merlin fragments pull down nontagged FL KRas4B overexpressed in 293 cells by transient transfection; western blot; only the target purified
GST-merlin S518A = GST-merlin S518A (UniProt P35240); assay: pull-down; GST-merlin S518A with lysate from RT4/Tet-NF2 S518D cells; western blot; only the target purified
[6] = molecular target: T6, endogenous merlin of RT4 cells (rat (endogenous in RT4)) (UniProt Q63648); assay: co-IP; endogenous proteins from confluent RT4 cells; western blot
T6 sequence: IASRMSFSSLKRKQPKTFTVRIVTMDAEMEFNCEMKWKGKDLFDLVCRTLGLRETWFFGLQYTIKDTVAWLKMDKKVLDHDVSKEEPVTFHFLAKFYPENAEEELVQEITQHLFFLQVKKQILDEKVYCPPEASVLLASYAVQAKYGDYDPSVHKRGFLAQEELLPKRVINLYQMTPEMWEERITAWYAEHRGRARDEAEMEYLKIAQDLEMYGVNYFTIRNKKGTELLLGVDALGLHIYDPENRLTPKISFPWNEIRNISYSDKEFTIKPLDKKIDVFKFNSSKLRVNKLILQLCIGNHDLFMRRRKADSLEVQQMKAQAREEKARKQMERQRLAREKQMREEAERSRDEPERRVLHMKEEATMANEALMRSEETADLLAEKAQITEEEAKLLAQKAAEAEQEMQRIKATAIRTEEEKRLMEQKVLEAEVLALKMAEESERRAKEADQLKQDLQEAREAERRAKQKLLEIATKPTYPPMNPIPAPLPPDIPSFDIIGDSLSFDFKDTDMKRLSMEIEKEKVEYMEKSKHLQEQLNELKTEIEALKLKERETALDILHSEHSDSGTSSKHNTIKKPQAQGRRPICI

Molecule: Cerf-merlin (from UniProt P35240 1-595)
- binding (Cerl-RasGAP): binds

Molecule: HRas 1–166 (from UniProt P01112 1-166) (domain or fragment)
- binding [1]: no binding
- binding [2]: binds weakly

Molecule: endogenous merlin of 293 cells (from UniProt P35240 1-595)
- binding [3]: binds

Molecule: ezrin of 293 cells (from UniProt P15311 1-586)
- binding [3]: no binding

Molecule: merlin S518A in cell lysate (from UniProt P35240 1-595)
- binding (GST-RasGAP FL): binds

Molecule: merlin S518D in cell lysate (from UniProt P35240 1-595)
- binding (GST-RasGAP FL): binds

Molecule: merlin cotransfected in Sc4 cells (from UniProt P35240 1-595)
- binding (EGFP-RasGAP): binds
- binding (EGFP-PH): binds

Molecule: merlin isoform 1 S518A overexpressed in 293 cells (from UniProt P35240 1-595)
- binding [4]: binds

Molecule: moesin of 293 cells (from UniProt P26038 1-577)
- binding [3]: no binding

Molecule: nontagged full-length KRas4B (from UniProt P01116-2 1-188)
- binding [5]: binds

Molecule: radixin of 293 cells (from UniProt P35241 1-583)
- binding [3]: binds weakly

B1: endogenous RasGAP of RT4 cells (protein, UniProt P50904 1-1038)
chain: MMAAEAGSEEGGPATAGTGGAAATGSSAYPAACRVKLPAAPPMAVAPCPGLADTDLAAALGGGAASGSGFLGTGPVSGVLGGAALTGGAAAGVAGAAAAGPAGDIALTKGTLSLPAETLGPGGGFPPLPPPPLLPPLGSGLGTVDEGDSLDGPEYEEEEVAIPLTAPPTNQWYHGKLDRTIAEERLRQAGKSGSYLIRESDRRPGSFVLSFLSQTNVVNHFRIIAMCGDYYIGGRRFSSLSDLIGYYSHVSCLLKGEKLLYPVAPPEPVEDRRRVRAILPYTKVPDTDEISFLKGDMFIVHNELEDGWMWVTNLRTDEQGLIVEDLVEEVGREEDPHEGKIWFHGKISKQEAYNLLMTVGQVCSFLVRPSDNTPGDYSLYFRTNENIQRFKICPTPNNQFMMGGRYYNSIGDIIDHYRKEQIVEGYYLKEPVPMQDQGQVLNDTVDGKEIYNTIRRKTKDAFYKNIVKKGYLLKKGKGKRWKNLYFILEGSDAQLIYFESEKRATKPKGLIDLSVCSVYVVHDSLFGRPNCFQIVVQHFSEEHYIFYFAGETPEQAEDWMKGLQAFCSLRKSSPGTSNKRLRQVSSLVLHIEEAHKLPVKHFTNPYCNIYLNSVQVAKTHAREGQNPVWSEEFVFDDLPPDINRFEITLSNKTKKSKDPDILFMRCQLSRLQKGHATDEWFLLSSHIPLKGIEPGSLRVRARYSMEKIMPEEEYSEFKELILQKELHVVYALSHVCGQDRTLLASILLKIFLHEKLESLLLCTLNDREISMEDEATTLFRATTLASTLMEQYMKATATQFVHHALKDSILKIMESKQSCELSPSKLEKNEDVNTNLAHLLSILSELVEKIFMASEILPPTLRYIYGCLQKSVQHKWPTNNTMRTRVVSGFVFLRLICPAILNPRMFNIISDSPSPIAARTLTLVAKSVQNLANLVEFGAKEPYMEGVNPFIKSNKHRMIMFLDELGNVPELPDTTEHSRTDLSRDLAALHEICVAHSDELRTLSNERGVQQHVLKKLLAITELLQQKQNQYTKTNDVR
- binding (GST-merlin S518A): binds
- binding [6]: binds
